{"source": "patent US20110135573A1", "about": "“METALLOPROTEINASE 9 AND METALLOPROTEINASE 2 BINDING PROTEINS” (DYAX CORP., priority 2009, published 2011)", "molecules": {"B1": {"name": "M0279-B02: MMP-9 specific antibody from light chain shuffling of M237-D02, sFab (antibody, V domains shown)", "VH": "EVQLLESGGGLVQPGGSLRLSCAASGFTFSQYPMWWVRQAPGKGLEWVSYIVPSGGRTYYADSVKGRFTISRDNSKNTLYLQMNSLRAEDTAVYYCAKDRAYGDYVGWNGFDYWGQGTLVTVSS", "VL": "QDIQMTQSPATLSVSPGERATLSCRASQSVSSNLAWYQQKPGQAPRLLIYGASTRATGIPARFSGSGSGTEFTLTISSLQSEDFAVYYCQQRRNWPVTFGQGTRLEII"}}, "assay_in_all_cases": "Enzyme inhibition assay (single point inhibition, IC50/Ki,app), substrate M-2350", "assay_type_in_all_cases": "biochemical", "conditions_in_all_cases": "light chain shuffled antibodies", "key": {"Mouse MMP-9": {"molecular_target": "T1, Mouse MMP-9 (Mus musculus, UniProt P41245)", "T1 construct": "purchased R&D Systems 909-MM (909-MM-010)", "T1 sequence (P41245 108-730)": "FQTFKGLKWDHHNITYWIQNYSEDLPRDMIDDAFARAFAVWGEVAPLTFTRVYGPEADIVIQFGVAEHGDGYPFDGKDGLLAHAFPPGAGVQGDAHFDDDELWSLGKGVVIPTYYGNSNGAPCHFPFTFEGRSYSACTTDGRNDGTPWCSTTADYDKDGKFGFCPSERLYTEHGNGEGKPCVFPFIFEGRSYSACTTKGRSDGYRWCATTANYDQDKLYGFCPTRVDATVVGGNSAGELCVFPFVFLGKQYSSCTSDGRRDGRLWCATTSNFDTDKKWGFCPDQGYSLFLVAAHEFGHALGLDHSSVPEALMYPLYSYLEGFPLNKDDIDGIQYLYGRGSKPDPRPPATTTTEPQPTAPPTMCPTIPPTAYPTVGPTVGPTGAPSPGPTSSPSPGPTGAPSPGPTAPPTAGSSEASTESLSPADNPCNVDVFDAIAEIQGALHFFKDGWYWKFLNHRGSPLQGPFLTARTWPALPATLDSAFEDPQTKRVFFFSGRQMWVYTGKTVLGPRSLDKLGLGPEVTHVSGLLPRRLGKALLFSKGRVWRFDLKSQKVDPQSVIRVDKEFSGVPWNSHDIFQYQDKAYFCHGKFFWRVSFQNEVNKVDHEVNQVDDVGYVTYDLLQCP", "procedure": "(§1) 343 unique sFabs from the anti-MMP-9/-2 M237-D02 affinity maturation campaign were discovered by phage display, produced in small scale (6 mL cultures in deep 24-well plates) and screened to select inhibitors with sub-nanomolar potency against the human enzymes and at least single-digit nanomolar potency toward the mouse orthologues. […] Isolates which appeared potent against both human and mouse MMP-2 were then subjected to IC50 analysis against hMMP-9. Sub-nanomolar inhibitors of hMMP-9 were further tested by IC50 analysis against mMMP-9 and h/m MMP-2, if sufficient small-scale sFab material was available. Thirteen potential h/m MMP-9/-2 sFab inhibitors were then produced in medium scale (250 mL cultures in flasks) and retested for h/m MMP-9 and h/m MMP-2 inhibition. Five potential lead candidates were reformatted as IgGs and retested in enzyme inhibition assays.\n(§2) Human MMP-9 (Biomol #SE-244), mouse MMP-9 (R&D Systems #909-MM-010), human MMP-2 (Biomol #SE-237) and mouse MMP-2 (R&D Systems #924-MP-010) were tested at final concentrations of 1 nM, 0.25-0.4 nM, 2.5 nM and 0.2 nM, respectively. Target enzymes were incubated with inhibitor for two hours at 30° C. in reaction buffer (50 mM Tris-HCl pH 7.5, 150 mM NaCl, 5 mM CaCl2, 0.05% Brij-35) in a total volume of 90 μL using a white 96 well plate (Costar). Reactions contained 5 μL of small-scale sFab stock solution (average concentration of 500 nM) for single point inhibition analysis or a concentration series of sFab/IgG for IC50 Ki,app determinations. […] Reactions were initiated by the addition of 10 μL of a 10× concentrated stock of substrate, Mca-Lys-Pro-Leu-Gly-Leu-Dap(Dnp)-Ala-Arg-NH2, (Bachem M-2350), at final concentration of 10 μM and monitored at 30° C. in a Molecular Devices' Gemini fluorescence plate reader. […] Kinetic data were acquired by the increase in fluorescence, and initial rates for each condition were plotted against the total inhibitor concentration. […]"}, "human MMP-2": {"molecular_target": "T2, human MMP-2 (Homo sapiens, UniProt P08253)", "T2 construct": "purchased Biomol SE-237", "T2 sequence (P08253 110-446 limits assumed)": "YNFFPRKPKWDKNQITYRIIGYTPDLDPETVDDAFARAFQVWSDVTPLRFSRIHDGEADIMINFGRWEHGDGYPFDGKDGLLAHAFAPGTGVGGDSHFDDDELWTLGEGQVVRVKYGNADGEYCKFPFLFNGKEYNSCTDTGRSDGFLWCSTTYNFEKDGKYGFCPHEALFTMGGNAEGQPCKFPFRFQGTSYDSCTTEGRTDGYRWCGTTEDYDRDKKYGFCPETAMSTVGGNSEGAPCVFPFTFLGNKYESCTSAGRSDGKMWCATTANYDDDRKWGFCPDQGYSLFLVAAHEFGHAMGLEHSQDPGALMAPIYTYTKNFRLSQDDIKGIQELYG", "procedure": "as §1, §2"}, "mouse MMP-2": {"molecular_target": "T3, mouse MMP-2 (Mus musculus, UniProt P33434)", "T3 construct": "purchased R&D Systems 924-MP-010", "T3 sequence (P33434 110-662)": "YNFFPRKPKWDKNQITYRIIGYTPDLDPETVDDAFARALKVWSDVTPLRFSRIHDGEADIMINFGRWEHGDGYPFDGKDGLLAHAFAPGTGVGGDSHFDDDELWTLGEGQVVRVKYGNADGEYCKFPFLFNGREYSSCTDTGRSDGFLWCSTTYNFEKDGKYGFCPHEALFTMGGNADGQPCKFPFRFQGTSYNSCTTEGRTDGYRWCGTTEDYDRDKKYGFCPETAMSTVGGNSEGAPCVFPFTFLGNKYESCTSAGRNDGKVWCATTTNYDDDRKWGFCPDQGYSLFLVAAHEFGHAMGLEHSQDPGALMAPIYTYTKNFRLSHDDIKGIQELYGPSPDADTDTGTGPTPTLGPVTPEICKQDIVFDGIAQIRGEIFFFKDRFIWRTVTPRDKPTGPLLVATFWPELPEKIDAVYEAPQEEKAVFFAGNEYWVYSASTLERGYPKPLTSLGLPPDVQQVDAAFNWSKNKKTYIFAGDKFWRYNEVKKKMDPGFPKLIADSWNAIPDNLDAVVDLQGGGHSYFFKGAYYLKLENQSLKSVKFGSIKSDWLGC", "procedure": "as §1, §2"}, "MMP-9": {"molecular_target": "MMP-9 (Homo sapiens, UniProt P14780)", "sequence (P14780 107-444 limits assumed)": "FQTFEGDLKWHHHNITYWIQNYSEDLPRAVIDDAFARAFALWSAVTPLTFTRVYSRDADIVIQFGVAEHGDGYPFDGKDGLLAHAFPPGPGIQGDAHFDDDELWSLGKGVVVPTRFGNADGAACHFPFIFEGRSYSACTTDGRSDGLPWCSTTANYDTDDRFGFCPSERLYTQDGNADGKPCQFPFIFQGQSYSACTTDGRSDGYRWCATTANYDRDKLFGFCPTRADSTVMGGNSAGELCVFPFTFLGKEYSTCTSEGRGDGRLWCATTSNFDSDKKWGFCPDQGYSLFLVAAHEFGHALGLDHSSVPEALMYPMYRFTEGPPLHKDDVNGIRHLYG", "set-up": "Human MMP-9 catalytic domain (BIOMOL, SE-244); purchased BIOMOL SE-244", "procedure": "as §1, with “Thirteen potential h/m MMP-9/-2 sFab inhibitors were then produced in medium scale (250 mL cultures in flasks) and retested for h/m MMP-9 and h/m MMP-2 inhibition. Five potential lead candidates were reformatted as IgGs and retested in enzyme inhibition assays.” left out\nHuman MMP-9 (Biomol #SE-244), mouse MMP-9 (R&D Systems #909-MM-010), human MMP-2 (Biomol #SE-237) and mouse MMP-2 (R&D Systems #924-MP-010) were tested at final concentrations of 1 nM, 0.25-0.4 nM, 2.5 nM and 0.2 nM, respectively. […] Reactions were initiated by the addition of 10 μL of a 10× concentrated stock of substrate, Mca-Lys-Pro-Leu-Gly-Leu-Dap(Dnp)-Ala-Arg-NH2, (Bachem M-2350), at final concentration of 10 μM and monitored at 30° C. in a Molecular Devices' Gemini fluorescence plate reader. […] Kinetic data were acquired by the increase in fluorescence, and initial rates for each condition were plotted against the total inhibitor concentration. […]"}}, "data": [{"molecule": "B1", "values": [{"measurement": "inhibition of mouse MMP-9 (in words)", "setting": "Mouse MMP-9", "value": "bind and inhibit"}, {"measurement": "inhibition of human MMP-2 (in words)", "setting": "human MMP-2", "value": "do not inhibit"}, {"measurement": "inhibition of mouse MMP-2 (in words)", "setting": "mouse MMP-2", "value": "do not inhibit"}, {"measurement": "inhibition of human MMP-9 (in words)", "setting": "MMP-9", "value": "bind and inhibit"}]}]}
